Test results published in PubChem BioAssay AID1768 (National Center for Advancing Translational Sciences (NCATS), 2009).
Several values for one entry are separate records, joined by “and”; a condition that tells them apart may be missing. Equal entries are not always repeated. About 620 (0.23%) of roughly 270,000 compounds were called active. The inconclusive results got no clear call from the source; some entries with a clear call stand among them for comparison. Calls follow the shape of the dose curve; as a rule, active = well fitted inhibition curve with a large enough effect in the polarisation, with a control signal flat (not every such curve was filed as active); inconclusive = small, poorly fitted or top-dose-only effect, or effect the other way, or a change in a side signal; inactive = no such curve, though single readings can be large or run the other way; the % refers to the polarisation. Potencies beside an inconclusive call are fits to weak or partial responses and may not hold up. “Side channel” marks fits to a control or component signal instead of the main read-out.

Each compound was assayed against Menin (Homo sapiens) (UniProt O00255) (assay: qHTS Assay for Inhibitors Targeting the Menin-MLL Interaction in MLL Related Leukemias: Competition With Texas Red Labeled MLL-derived Mutant Peptide). Settings: fluorescence polarization; FP activity change, negative = inhibition: at 61.6 µM (top of the series).
For FP activity change, negative = inhibition in this document: % of control where 0% means no effect.
Potency is read from the fitted curve at half-maximal effect; tags tell the direction and shape of the fitted curve or compound fluorescence and quenching.

Chain of UniProt O00255 (O00255 whole entry, looked up): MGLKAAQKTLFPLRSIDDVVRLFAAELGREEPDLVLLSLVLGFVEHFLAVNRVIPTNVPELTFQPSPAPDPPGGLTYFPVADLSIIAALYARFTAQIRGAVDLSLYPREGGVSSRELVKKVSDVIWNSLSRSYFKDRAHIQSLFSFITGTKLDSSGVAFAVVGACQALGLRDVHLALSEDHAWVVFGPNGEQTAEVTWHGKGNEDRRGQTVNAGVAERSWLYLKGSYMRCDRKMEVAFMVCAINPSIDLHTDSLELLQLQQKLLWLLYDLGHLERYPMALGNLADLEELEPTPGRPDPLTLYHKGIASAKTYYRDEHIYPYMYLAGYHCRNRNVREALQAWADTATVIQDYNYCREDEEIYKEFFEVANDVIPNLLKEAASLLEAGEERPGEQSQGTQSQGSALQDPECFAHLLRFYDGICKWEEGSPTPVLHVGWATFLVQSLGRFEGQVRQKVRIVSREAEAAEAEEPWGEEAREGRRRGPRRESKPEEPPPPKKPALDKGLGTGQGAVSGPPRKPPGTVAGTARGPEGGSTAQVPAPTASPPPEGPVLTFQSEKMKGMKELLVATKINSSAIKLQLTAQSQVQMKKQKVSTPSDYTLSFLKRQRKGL

Compound	Potency	FP activity change, negative = inhibition
CCCSCCCNC(=O)Cn1c(=O)c2cccn2c2ccccc21	inconclusive: 39.8 µM [inhibitor, single point]	
Cc1cc(C)c2c(N)c(C(=O)Nc3ccc(C)c(C)c3)sc2n1	inconclusive: 31.6 µM [quencher, partial curve]	
COc1cc(C(=O)N2CCN(c3ncnc4sc(C)c(C)c34)CC2)cc(OC)c1OC	inconclusive: 7.94 µM [fluorescent, side channel, full curve, poor fit]	
COc1ccc2c(c1)Sc1ccccc1N2	inconclusive: 15.8 µM [quencher, side channel, partial curve]	
C=CCN(C)CCCCCCOc1ccc(C(=O)c2ccc(Br)cc2)c(F)c1	inconclusive: 17.8 µM [inhibitor, partial curve]	
Cc1ccc(C(=O)N(CC(=O)NC2CCCC2)c2cccc(F)c2)s1	inconclusive: 11.2 µM [inhibitor, partial curve, poor fit]	
COc1cc(NS(=O)(=O)c2ccc(-c3ccc(=O)[nH]n3)o2)cc(OC)c1OC		inactive: 2.16%
Cc1cccc(OCCC(=O)Nc2ccc(F)c(F)c2)c1	inconclusive: 12.6 µM [quencher, side channel, partial curve]	
Cc1ccc(OCC(=O)Nc2ccc3c(c2)nc(CCN2CCCCC2)n3C)cc1		inactive: 4.85%
Cc1cc(C)n(CC(O)CN(c2ccccc2)S(=O)(=O)c2ccccc2)n1 (stereo not drawn)	inconclusive: 7.94 µM [inhibitor, full curve, poor fit]	
O=C(Nc1ccccc1F)C1CCCN(S(=O)(=O)c2ccc(-n3cnnn3)cc2)C1 (stereo not drawn)	inconclusive: 35.5 µM [fluorescent, side channel, single point]	
O=C(CO/N=C/c1ccc(OC(F)F)cc1)N1CCc2ccccc21	inconclusive: 39.8 µM [fluorescent, side channel, single point]	
CCOc1cccc2sc(N(CCN(C)C)C(=O)c3cc4ccccc4cc3OC)nc12	inconclusive: 35.5 µM [inhibitor, partial curve]	
COc1ccc(-c2[nH]ncc2CN(Cc2nccn2C)C(C)C)c(F)c1	inconclusive: 39.8 µM [fluorescent, side channel, single point]	
CCOc1ccc2nc(SCC(=O)NC(=O)NCc3ccco3)sc2c1	inconclusive: 25.1 µM [fluorescent, side channel, single point]	
N#C/C(=C\c1cc(Cl)cc(Cl)c1O)C(=O)NC1CCCCC1	inconclusive: 39.8 µM [quencher, side channel, single point]	
COCCn1c(=O)[nH]c2cc(C(=O)Nc3nnc(C)s3)ccc21	inconclusive: 44.7 µM [inhibitor, partial curve, poor fit]	
Cc1ccc(-c2nc(N)n(S(=O)(=O)c3ccc(C)cc3)n2)cc1	inconclusive: 12.6 µM [quencher, side channel, partial curve]	
CN(C)c1ccc(N=Nc2ccc(S(N)(=O)=O)cc2)cc1	inconclusive: 10 µM [quencher, side channel, partial curve]	
Clc1ccc(-c2csc(N/N=C/c3cccnc3)n2)c(Cl)c1	inconclusive: 17.8 µM [quencher, side channel, partial curve]	

Compound	Potency	FP activity change, negative = inhibition
CC(CCc1ccccc1)NC(=O)c1ccc2nc(N3CCOCC3)sc2c1 (stereo not drawn)	inconclusive: 8.91 µM [fluorescent, side channel, partial curve]	
CCCCCn1nc(C)c(/C=N/NC(=O)c2ccoc2C)c1C	inconclusive: 8.91 µM [inhibitor, single point]	
CCCc1[nH]nc2c1C1(CCN(C(=O)OCc3ccccc3)CC1)C(C#N)=C(N)O2	inconclusive: 12.6 µM [inhibitor, partial curve]	
Cc1cccc(CSc2cccc3cccnc23)c1		inactive: 36%
O=C(O)c1ccccc1C(=O)NC1=NN(c2ccccc2)CC1	inconclusive: 39.8 µM [quencher, side channel, single point]	
CCOc1ccccc1CNS(=O)(=O)c1ccc2[nH]c(=O)sc2c1	inconclusive: 35.5 µM [quencher, side channel, single point]	
COc1ccc(NC(=O)c2cccnc2Nc2ccc(OC)cc2)cc1	inconclusive: 11.2 µM [quencher, side channel, partial curve]	
Cc1sc2ncnc(NCc3cccs3)c2c1C	inconclusive: 8.91 µM [inhibitor, single point]	
CCOc1cc(CNCCCN2CCOCC2)cc(Br)c1OCC(=O)Nc1cccc(C(F)(F)F)c1	inconclusive: 39.8 µM [inhibitor, single point]	
O=C1NN(c2ccc(F)cc2)C(=O)/C1=C/c1cccs1	inconclusive: 14.1 µM [quencher, side channel, partial curve, poor fit]	
COc1ccc2cc(C(=O)N3CCN(c4ccccc4F)CC3)[nH]c2c1	inconclusive: 22.4 µM [inhibitor, partial curve]	
CC(=O)Nc1ccc(/C=C2/Sc3ccccc3C2=O)cc1	inconclusive: 8.91 µM [quencher, side channel, partial curve]	
COc1ccc2c(c1)C(=NO)c1cc(OC)ccc1-2	inconclusive: 28.2 µM [quencher, side channel, single point]	
CSc1ccc(CN2CCCC(CNC(=O)c3ccc(F)cc3)C2)cc1 (stereo not drawn)	inconclusive: 17.8 µM [inhibitor, partial curve]	
COc1cc(/C=C\c2ccc(OC)cc2OC)cc(OC)c1	inconclusive: 8.91 µM [quencher, side channel, full curve]	
C=C(C)c1cccc(C(C)(C)NC(=O)N2CCN(c3ccccc3OC)CC2)c1	inconclusive: 1.26 µM [fluorescent, side channel, full curve, poor fit]	
Cc1ccc(S(=O)(=O)N(CC(=O)Nc2ccccc2C(=O)O)c2ccccc2C)cc1	inconclusive: 28.2 µM [quencher, side channel, single point]	
CC1=NN(c2ccccc2)C(=O)C1/C=C1\NC(=S)NC1=O (stereo not drawn)	inconclusive: 28.2 µM [quencher, side channel, single point]	
O=C(N/N=C\c1cc2c(cc1Cl)OCO2)c1cccnc1	inconclusive: 39.8 µM [inhibitor, single point]	
O=C(Nc1ncn[nH]1)c1ccc(Cl)cc1Cl	inconclusive: 22.4 µM [fluorescent, side channel, partial curve]	

Compound	Potency	FP activity change, negative = inhibition
CCOC(=O)c1ccc(-n2c(CN3CCC(O)CC3)nc3ccc([N+](=O)[O-])cc3c2=O)cc1	inconclusive: 35.5 µM [quencher, side channel, single point]	
O=C(NN=C1CCCC1)c1ccccc1[N+](=O)[O-]	inconclusive: 28.2 µM [inhibitor, partial curve]	
N#Cc1ccc(CN2CCC3(CC2)CCN(S(=O)(=O)c2ccccc2)CC3)cc1	inconclusive: 15.8 µM [inhibitor, partial curve]	
COc1ccc(N=C2NC(=O)S/C2=C\c2ccc(N(C)C)cc2)cc1	inconclusive: 2.51 µM [quencher, side channel, full curve, poor fit]	
COc1cc(C)c(C(=O)Oc2cc(C)c(C(=O)O)c(O)c2C)c(OC)c1C	inconclusive: 11.2 µM [quencher, side channel, partial curve] and inconclusive: 25.1 µM [quencher, side channel, partial curve]	
Cc1ccc(-c2nc3c(c(=O)[nH]c(=O)n3CC(C)C)n2CC(C)C)cc1[N+](=O)[O-]	inconclusive: 10 µM [fluorescent, side channel, partial curve]	
O=C(COc1ccccc1/C=C\c1[nH]c(=O)[nH]c(=O)c1[N+](=O)[O-])Nc1ccccc1		inactive: 71.5%
CC1CCN(C(=O)COC(=O)c2n[nH]c3ccccc23)CC1	inconclusive: 7.08 µM [fluorescent, side channel, single point]	
O=C(NC1CCCC1)c1ccccc1OCc1ccccc1	inconclusive: 10 µM [inhibitor, partial curve]	
O=C1c2ccsc2SCCN1Cc1ccc(F)cc1		inactive: -15.7%
CCc1ccc(NC(=O)c2ccc3ncsc3c2)cc1		inactive: 34.8%
O=C(CCOc1ccccc1)OCC(=O)c1cc2ccccc2o1	inconclusive: 35.5 µM [quencher, side channel, single point]	
CC(C)(C)c1ccc(OCC(=O)N(c2ccccn2)C2CCCCC2)cc1	inconclusive: 17.8 µM [fluorescent, side channel, partial curve]	
Cc1ccc(C)c(/C(O)=C2\C(=O)C(=O)N(Cc3cccnc3)C2c2cccnc2)c1 (stereo not drawn)	inconclusive: 3.55 µM [inhibitor, partial curve, poor fit]	
O=C(Nc1nc2ccccc2s1)c1ccc(OCC2CCCO2)cc1 (stereo not drawn)	inconclusive: 15.8 µM [quencher, side channel, partial curve]	
CS(=O)(=O)c1ccc2nc(NC(=O)c3cc4ccccc4o3)sc2c1	inconclusive: 28.2 µM [quencher, side channel, single point]	
Nc1c(C(=O)NCc2ccco2)c2nc3ccccc3nc2n1CCc1ccccc1F		inactive: 13.1%
COc1ccc(-n2ccnc2CN2CCCC(CO)(Cc3cccc(OC)c3)C2)cc1 (stereo not drawn)	inconclusive: 14.1 µM [fluorescent, side channel, partial curve]	
